# Test results reported in the supplement of paper PMC8728848.
# The list shows a part of the results.
# B1: Neuropilin-1 (Homo sapiens), O14786 (protein)
# chain: FKCMEALGMESGEIHSDQITASSQYSTNWSAERSRLNYPENGWTPGEDSYREWIQVDLGLLRFVTAVGTQGAISKETKKKYYVKTYKIDVSSNGEDWITIKEGNKPVLFQGNTNPTDVVVAVFPKPLITRFVRIKPATWETGISMRFEVYGCKITDYPCSGMLGMVSGLISDSQITSSNQGDRNWMPENIRLVTSRSGWALPPAPHSYINEWLQIDLGEEKIVRGIIIQGGKHRENKVFMRKFKIGYSNNGSDWKMIMDDSKRKAKSFEGNNNYDTPELRTFPALSTRFIRIYPERATHGGLGLRMELLGCEVE
# Tests used:
# Assay in all cases: glycan array binding signal (z-score within array); higher = stronger binding
# Conditions in all cases: glycan notation: IUPAC condensed, linker removed
# [1] = biological target: Man(a1-2)Man(a1-2)Man(a1-6)[Man(a1-3)]Man
# Procedure, shortened: (§1)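 Arrays were curated from the Consortium for Functional Glycomics database, 3228 in total, and kept only where the protein sequence was available. Binding is expressed as a within-array Z-score. This score was averaged across arrays of the same protein sequence at different concentrations or buffers and across linkers, and negative values can be read as non-binding.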
# Man(a1-2)Man(a1-3)Man = biological target: Man(a1-2)Man(a1-3)Man
# Procedure, shortened: as §1
# [2] = biological target: Man(a1-2)Man(a1-3)[Man(a1-2)Man(a1-6)]Man
# Procedure, shortened: as §1
# [3] = biological target: Man(a1-2)Man(a1-3)[Man(a1-2)Man(a1-6)]Man(a1-6)[Man(a1-2)Man(a1-2)Man(a1-3)]Man
# Procedure, shortened: as §1
# [4] = biological target: Man(a1-2)Man(a1-3)[Man(a1-2)Man(a1-6)]Man(a1-6)[Man(a1-2)Man(a1-2)Man(a1-3)]Man(b1-4)GlcNAc(b1-4)GlcNAc
# Procedure, shortened: as §1
# [5] = biological target: Man(a1-2)Man(a1-3)[Man(a1-6)]Man(a1-6)[Man(a1-2)Man(a1-3)]Man(b1-4)GlcNAc(b1-4)GlcNAc
# Procedure, shortened: as §1
# [6] = biological target: Man(a1-2)Man(a1-6)[Man(a1-3)]Man(a1-6)[Man(a1-2)Man(a1-2)Man(a1-3)]Man
# Procedure, shortened: as §1
# [7] = biological target: Man(a1-2)Man(a1-6)[Man(a1-3)]Man(a1-6)[Man(a1-2)Man(a1-2)Man(a1-3)]Man(b1-4)GlcNAc(b1-4)GlcNAc
# Procedure, shortened: as §1
# Man(a1-3)[Man(a1-6)]Man = biological target: Man(a1-3)[Man(a1-6)]Man
# Procedure, shortened: as §1
# [8] = biological target: Man(a1-3)[Man(a1-6)]Man(a1-6)[Man(a1-2)Man(a1-3)]Man(b1-4)GlcNAc(b1-4)GlcNAc
# Procedure, shortened: as §1
# [9] = biological target: Man(a1-3)[Man(a1-6)]Man(a1-6)[Man(a1-3)]Man
# Procedure, shortened: as §1
# [10] = biological target: Man(a1-3)[Man(a1-6)]Man(a1-6)[Man(a1-3)]Man(b1-4)GlcNAc(b1-4)GlcNAc
# Procedure, shortened: as §1
# [11] = biological target: Man(a1-3)[Man(a1-6)]Man(b1-4)GlcNAc(b1-4)GlcNAc
# Procedure, shortened: as §1
# Man(a1-6)Man = biological target: Man(a1-6)Man
# Procedure, shortened: as §1
# Man(b1-4)GlcNAc = biological target: Man(b1-4)GlcNAc
# Procedure, shortened: as §1
# Neu5Ac(a2-3)Gal = biological target: Neu5Ac(a2-3)Gal
# Procedure, shortened: as §1
# [12] = biological target: Neu5Ac(a2-3)Gal(b1-3)GalNAc
# Procedure, shortened: as §1
# [13] = biological target: Neu5Ac(a2-3)Gal(b1-3)GalNAc(b1-3)Gal(a1-4)Gal(b1-4)Glc
# Procedure, shortened: as §1
# [14] = biological target: Neu5Ac(a2-3)Gal(b1-3)GalNAc(b1-3)Gal(b1-4)GlcNAc
# Procedure, shortened: as §1
# [15] = biological target: Neu5Ac(a2-3)Gal(b1-3)GalNAc(b1-4)[Neu5Ac(a2-3)]Gal(b1-4)Glc
# Procedure, shortened: as §1
# [16] = biological target: Neu5Ac(a2-3)Gal(b1-3)GalNAc6S
# Procedure, shortened: as §1
# [17] = biological target: Neu5Ac(a2-3)Gal(b1-3)GlcNAc
# Procedure, shortened: as §1
# [18] = biological target: Neu5Ac(a2-3)Gal(b1-3)GlcNAc(b1-3)Gal(b1-3)GlcNAc
# Procedure, shortened: as §1
# [19] = biological target: Neu5Ac(a2-3)Gal(b1-3)GlcNAc6S
# Procedure, shortened: as §1
# [20] = biological target: Neu5Ac(a2-3)Gal(b1-3)[Fuc(a1-4)]GlcNAc
# Procedure, shortened: as §1
# [21] = biological target: Neu5Ac(a2-3)Gal(b1-3)[Fuc(a1-4)]GlcNAc(b1-3)Gal(b1-3)[Fuc(a1-4)]GlcNAc
# Procedure, shortened: as §1
# [22] = biological target: Neu5Ac(a2-3)Gal(b1-3)[Fuc(a1-4)]GlcNAc(b1-3)Gal(b1-4)[Fuc(a1-3)]GlcNAc
# Procedure, shortened: as §1
# [23] = biological target: Neu5Ac(a2-3)Gal(b1-3)[Neu5Ac(a2-3)Gal(b1-4)]GlcNAc
# Procedure, shortened: as §1
# [24] = biological target: Neu5Ac(a2-3)Gal(b1-3)[Neu5Ac(a2-6)]GalNAc
# Procedure, shortened: as §1
# Neu5Ac(a2-3)Gal(b1-4)Glc = biological target: Neu5Ac(a2-3)Gal(b1-4)Glc
# Procedure, shortened: as §1
# [25] = biological target: Neu5Ac(a2-3)Gal(b1-4)GlcNAc
# Procedure, shortened: as §1
# [26] = biological target: Neu5Ac(a2-3)Gal(b1-4)GlcNAc(b1-2)Man(a1-3)[GlcNAc(b1-2)Man(b1-4)GlcNAc(b1-2)Man(a1-6)]Man(b1-4)GlcNAc(b1-4)GlcNAc
# Procedure, shortened: as §1
# [27] = biological target: Neu5Ac(a2-3)Gal(b1-4)GlcNAc(b1-2)Man(a1-3)[Neu5Ac(a2-6)Gal(b1-4)GlcNAc(b1-2)Man(a1-6)]Man(b1-4)GlcNAc(b1-4)GlcNAc
# Procedure, shortened: as §1
# [28] = biological target: Neu5Ac(a2-3)Gal(b1-4)GlcNAc(b1-3)Gal(b1-3)GlcNAc
# Procedure, shortened: as §1
# [29] = biological target: Neu5Ac(a2-3)Gal(b1-4)GlcNAc(b1-3)Gal(b1-4)GlcNAc
# Procedure, shortened: as §1
# [30] = biological target: Neu5Ac(a2-3)Gal(b1-4)GlcNAc(b1-3)Gal(b1-4)GlcNAc(b1-3)Gal(b1-4)GlcNAc
# Procedure, shortened: as §1
# [31] = biological target: Neu5Ac(a2-3)Gal(b1-4)GlcNAc(b1-3)Gal(b1-4)[Fuc(a1-3)]GlcNAc
# Procedure, shortened: as §1
binder,measurement,setting,value
B1,glycan array binding signal (z-score),[1],-0.184
same,glycan array binding signal (z-score),Man(a1-2)Man(a1-3)Man,-0.147
same,glycan array binding signal (z-score),[2],-0.276
same,glycan array binding signal (z-score),[3],-0.321
same,glycan array binding signal (z-score),[4],-0.222
same,glycan array binding signal (z-score),[5],-0.189
same,glycan array binding signal (z-score),[6],-0.287
same,glycan array binding signal (z-score),[7],-0.27
same,glycan array binding signal (z-score),Man(a1-3)[Man(a1-6)]Man,-0.292
same,glycan array binding signal (z-score),[8],-0.269
same,glycan array binding signal (z-score),[9],-0.311
same,glycan array binding signal (z-score),[10],-0.196
same,glycan array binding signal (z-score),[11],-0.133
same,glycan array binding signal (z-score),Man(a1-6)Man,-0.262
same,glycan array binding signal (z-score),Man(b1-4)GlcNAc,-0.289
same,glycan array binding signal (z-score),Neu5Ac(a2-3)Gal,-0.3
same,glycan array binding signal (z-score),[12],-0.216
same,glycan array binding signal (z-score),[13],-0.237
same,glycan array binding signal (z-score),[14],-0.255
same,glycan array binding signal (z-score),[15],-0.298
same,glycan array binding signal (z-score),[16],-0.311
same,glycan array binding signal (z-score),[17],-0.256
same,glycan array binding signal (z-score),[18],-0.319
same,glycan array binding signal (z-score),[19],-0.162
same,glycan array binding signal (z-score),[20],-0.283
same,glycan array binding signal (z-score),[21],-0.172
same,glycan array binding signal (z-score),[22],0.065
same,glycan array binding signal (z-score),[23],-0.279
same,glycan array binding signal (z-score),[24],-0.177
same,glycan array binding signal (z-score),Neu5Ac(a2-3)Gal(b1-4)Glc,-0.196
same,glycan array binding signal (z-score),[25],-0.243
same,glycan array binding signal (z-score),[26],-0.246
same,glycan array binding signal (z-score),[27],-0.2
same,glycan array binding signal (z-score),[28],-0.303
same,glycan array binding signal (z-score),[29],-0.304
same,glycan array binding signal (z-score),[30],-0.277
same,glycan array binding signal (z-score),[31],-0.204
